This is an account of results in the BET-seq Pho4 binding data (Le et al. 2018).

Some of the results follow. The energies were worked out here from pooled read counts, against the library average; single values are noisy.

In the assay the target is T1, Pho4 (S. cerevisiae) (UniProt P07270).
T1 sequence: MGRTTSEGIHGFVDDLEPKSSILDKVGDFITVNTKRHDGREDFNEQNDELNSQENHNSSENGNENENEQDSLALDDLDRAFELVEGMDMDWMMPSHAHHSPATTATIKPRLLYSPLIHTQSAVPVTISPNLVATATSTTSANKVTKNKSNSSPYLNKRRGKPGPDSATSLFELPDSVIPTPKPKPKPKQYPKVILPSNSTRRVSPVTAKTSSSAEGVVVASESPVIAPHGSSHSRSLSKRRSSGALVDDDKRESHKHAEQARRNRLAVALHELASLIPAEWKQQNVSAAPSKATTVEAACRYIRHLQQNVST
Description: relative binding free energy (BET-seq); higher = weaker binding. As to conditions: reference: library average.
Regarding TATGGCACGTGCTTTA, the “relative binding free energy” value was -0.19 kcal/mol.
In the case of TATCACACGTGAGGTT it was 0.38 kcal/mol; in that of GTTGCCACGTGTGTTT, 0.14 kcal/mol.
In the case of GTGTTCACGTGTGGAT it was 0.36 kcal/mol; in that of TCTTACACGTGGTTAG, -0.02 kcal/mol.
In the case of TATATCACGTGCGTTA it was 0.05 kcal/mol.
Take AAGTTCACGTGATGGG: the “relative binding free energy” value was 0.38 kcal/mol.
In the case of GTGGGCACGTGCAGTC it was 0 kcal/mol.
Turning to TCGCTCACGTGGTGTT, the “relative binding free energy” value is 0.06 kcal/mol.
GTATGCACGTGGAGAA: the “relative binding free energy” value is 0.01 kcal/mol.
In the case of GGGAACACGTGGTGGG it was 0.08 kcal/mol.
On to AATATCACGTGTTCTA, for which the “relative binding free energy” value amounted to 0.16 kcal/mol.
In the case of GTGTTCACGTGGGGCT it was 0.17 kcal/mol.
In the case of GCGGTCACGTGTATTG it was 0.28 kcal/mol; in that of TTGTGCACGTGTAAAC, 0.11 kcal/mol; in that of GACTGCACGTGGAGTT, 0.16 kcal/mol.
Take GTAGGCACGTGGCTGA: the “relative binding free energy” value was -0.16 kcal/mol.
Take GAACTCACGTGTAGGT: the “relative binding free energy” value was found to be 0.22 kcal/mol.
In the case of ATAGACACGTGTCGTG it was 0 kcal/mol; in that of ATTTTCACGTGGGCAG, 0.18 kcal/mol.
Regarding ATATTCACGTGGCTTG, the “relative binding free energy” value is 0.11 kcal/mol.
In the case of CTATGCACGTGGATTG it was -0.11 kcal/mol; in that of GTGGGCACGTGTAGTA, 0.02 kcal/mol; in that of GATGTCACGTGGAGGC, 0.12 kcal/mol.
In the case of GGATTCACGTGAAATT it was 0.42 kcal/mol.
Consider TAAGGCACGTGTCGGG, for which the “relative binding free energy” value came out at 0.07 kcal/mol.
In the case of TTGTTCACGTGCAGTA it was 0.49 kcal/mol; in that of GCTTTCACGTGTAGGT, 0.28 kcal/mol.
In the case of GAAGTCACGTGTGCTG it was 0.13 kcal/mol.
In the case of AAAATCACGTGGGAGG it was 0.17 kcal/mol.
Take TGGTCCACGTGATGTA: the “relative binding free energy” value is 0.12 kcal/mol.
In the case of GTGAGCACGTGGTAGC it was -0.23 kcal/mol.
In the case of GTGTGCACGTGGCATA it was -0.02 kcal/mol.
In the case of ATTTTCACGTGATTTG it was 0.36 kcal/mol; in that of TAGGTCACGTGCGCGG, -0.06 kcal/mol.
As for AAAAGCACGTGGGCTG, the “relative binding free energy” value is -0.19 kcal/mol.
In the case of TTTTGCACGTGGCGTT it was -0.07 kcal/mol; in that of GGATCCACGTGGGAGG, 0 kcal/mol; in that of AGGGGCACGTGGGATC, -0.17 kcal/mol.
With TGTGACACGTGTAATA, the “relative binding free energy” value turned out to be 0.13 kcal/mol.
In the case of CTGTCCACGTGGAGGG it was -0.14 kcal/mol; in that of ATCTTCACGTGTTGGG, 0.26 kcal/mol.
Take TATATCACGTGGTGTC: the “relative binding free energy” value was -0.05 kcal/mol.
In the case of ATTGGCACGTGGGCAA it was -0.26 kcal/mol; in that of TAGGTCACGTGATAAT, 0.13 kcal/mol; in that of TGCGACACGTGATGTG, 0.06 kcal/mol.
In the case of TCGTACACGTGAGTGT it was 0.19 kcal/mol; in that of AATTTCACGTGTGTCA, 0.26 kcal/mol.
Take TTGTGCACGTGTCAGG: the “relative binding free energy” value is 0.06 kcal/mol.
Take GGTATCACGTGGTGGG: the “relative binding free energy” value came to 0.16 kcal/mol.
In the case of ACGGACACGTGTGGGC it was 0.05 kcal/mol; in that of GGGACCACGTGTAGGT, -0.01 kcal/mol; in that of TTGAGCACGTGTTGGC, -0.1 kcal/mol.
Consider TCCTTCACGTGTAGGT, for which the “relative binding free energy” value was 0.28 kcal/mol.
In the case of GTTTTCACGTGACGGT it was 0.4 kcal/mol.
For the sequence AGTGGCACGTGTCCTG, the “relative binding free energy” value was -0.12 kcal/mol.
In the case of CTGATCACGTGTTGGA it was 0.11 kcal/mol; in that of CTGCGCACGTGCGGTT, -0.04 kcal/mol; in that of TTATACACGTGTGATT, 0.2 kcal/mol.
CGCGTCACGTGTGGTA: the “relative binding free energy” value was 0.04 kcal/mol.
In the case of GGACGCACGTGTGTTA it was -0.04 kcal/mol; in that of ATTGTCACGTGTTGCC, 0.08 kcal/mol.
In the case of CGTTGCACGTGTGGAT it was 0.05 kcal/mol.
For AGTGGCACGTGACTAG, the “relative binding free energy” value was 0 kcal/mol.
In the case of TGCTGCACGTGAGAGG it was 0.07 kcal/mol.
On to AGTGCCACGTGTGTGC, for which the “relative binding free energy” value is -0.02 kcal/mol.
In the case of AGTAGCACGTGTAATG it was -0.11 kcal/mol; in that of AAATTCACGTGGGTAG, 0.17 kcal/mol; in that of GTGAGCACGTGTTATG, -0.05 kcal/mol.
In the case of GTGACCACGTGGCGGG it was -0.12 kcal/mol; in that of CTTTACACGTGGGATA, 0.06 kcal/mol; in that of AAGATCACGTGTGGAA, 0.27 kcal/mol.
In the case of ATCCGCACGTGGTGGT it was -0.2 kcal/mol; in that of TTTGGCACGTGGAAGG, -0.06 kcal/mol; in that of CCTGTCACGTGGTAGG, -0.03 kcal/mol.
Turning to AGACTCACGTGGTTGG, the “relative binding free energy” value is 0.12 kcal/mol.
In the case of TGCGACACGTGTTAGT it was 0.06 kcal/mol; in that of TTTCACACGTGTGGCT, 0.17 kcal/mol; in that of AAGTCCACGTGTGGTG, -0.14 kcal/mol.
In the case of AGCGGCACGTGAGGTG it was 0.15 kcal/mol; in that of TGTATCACGTGTGAAC, 0.27 kcal/mol.
In the case of ATACACACGTGGGGGT it was -0.13 kcal/mol; in that of CTTTTCACGTGGAAGG, 0.13 kcal/mol.
For AAGGACACGTGGGAGG, the “relative binding free energy” value is -0.03 kcal/mol.
Regarding GAATGCACGTGTTGGG, the “relative binding free energy” value was 0.08 kcal/mol.
In the case of GGTTGCACGTGGAGTC it was 0.14 kcal/mol.
On to TGTCACACGTGGGGTC, for which the “relative binding free energy” value is -0.08 kcal/mol.
In the case of CAGGTCACGTGATTTT it was 0.21 kcal/mol; in that of GGATTCACGTGTGGGG, 0.31 kcal/mol; in that of GGTCACACGTGATTGT, 0.23 kcal/mol.
In the case of TTTCGCACGTGCATGG it was -0.11 kcal/mol; in that of ATTGGCACGTGGCATG, -0.36 kcal/mol; in that of GTGGCCACGTGGGGCA, -0.27 kcal/mol.
In the case of TTGGTCACGTGTGACG it was 0.23 kcal/mol; in that of GGTTGCACGTGTTTAG, 0.08 kcal/mol.
As to TGTTCCACGTGTATTG, the “relative binding free energy” value is 0.03 kcal/mol.
In the case of TAGTCCACGTGTTATG it was 0.12 kcal/mol; in that of GTGATCACGTGGCGGA, 0.07 kcal/mol.
Regarding TTTCGCACGTGGTTAG, the “relative binding free energy” value is -0.23 kcal/mol.
As for TGCGGCACGTGTATAG, the “relative binding free energy” value is -0.05 kcal/mol.
In the case of ATTAGCACGTGGAAAG it was 0.1 kcal/mol; in that of TAGTACACGTGCTTTT, -0.12 kcal/mol; in that of AGGAGCACGTGTTTAA, -0.11 kcal/mol.
In the case of CATATCACGTGGTATG, the “relative binding free energy” value was determined as 0.1 kcal/mol.
In the case of CGGTGCACGTGAATGC, the “relative binding free energy” value came out at 0.29 kcal/mol.
As to AATGGCACGTGTCGGG, the “relative binding free energy” value is -0.09 kcal/mol.
Take CTTTGCACGTGTCTGG: the “relative binding free energy” value amounted to 0 kcal/mol.
In the case of TTAAGCACGTGGGTAT it was -0.2 kcal/mol; in that of TTTGTCACGTGTGAAA, 0.18 kcal/mol.
On to TTGCGCACGTGTAGCG, for which the “relative binding free energy” value is -0.04 kcal/mol.
In the case of AAGTTCACGTGCTGTA it was 0.34 kcal/mol; in that of CTTGTCACGTGATAAG, 0.12 kcal/mol; in that of AAAATCACGTGCGGTT, 0.24 kcal/mol.
As to TTCGGCACGTGGTATA, the “relative binding free energy” value is -0.09 kcal/mol.
Take TGTGGCACGTGTTGCT: the “relative binding free energy” value was -0.05 kcal/mol.
Take ATTAGCACGTGCGGTT: the “relative binding free energy” value is -0.15 kcal/mol.
Take TTTCTCACGTGCGGTG: the “relative binding free energy” value is 0.21 kcal/mol.
For the sequence AGTGTCACGTGATACG, the “relative binding free energy” value was determined as 0.21 kcal/mol.
For TATAGCACGTGATTTG, the “relative binding free energy” value stood at 0.12 kcal/mol.
For the sequence TAAGACACGTGGGTGG, the “relative binding free energy” value was -0.17 kcal/mol.
Consider TGGTTCACGTGGACGT, for which the “relative binding free energy” value was determined as 0.32 kcal/mol.
In the case of TAGGGCACGTGGTATT it was -0.27 kcal/mol; in that of TGTTACACGTGGCAGT, 0.03 kcal/mol; in that of AGGTTCACGTGTGTTA, 0.26 kcal/mol.
Take GGCTGCACGTGGTCGG: the “relative binding free energy” value was -0.11 kcal/mol.
For the sequence AGTTTCACGTGGGCGG, the “relative binding free energy” value was 0.1 kcal/mol.
In the case of AGTATCACGTGAGGTA it was 0.26 kcal/mol; in that of TTTGTCACGTGAGTCC, 0.35 kcal/mol.
Turning to GAAAGCACGTGTTGGT, the “relative binding free energy” value is -0.11 kcal/mol.
Consider TGAGCCACGTGGTTTT, for which the “relative binding free energy” value was -0.03 kcal/mol.
As for CGTGTCACGTGCGCGG, the “relative binding free energy” value is -0.06 kcal/mol.
In the case of GTTATCACGTGTATCG it was 0.24 kcal/mol; in that of GGTTGCACGTGAGAGG, 0.22 kcal/mol; in that of ATTGACACGTGATGCG, 0.06 kcal/mol.
In the case of GGATGCACGTGCGGGT it was -0.01 kcal/mol; in that of TAGGGCACGTGCGTCG, -0.22 kcal/mol.
In the case of AATGTCACGTGTGATC it was 0.3 kcal/mol.
TGGTCCACGTGCTTGT: the “relative binding free energy” value is 0 kcal/mol.
As to AGAGGCACGTGAATTA, the “relative binding free energy” value turned out to be 0.22 kcal/mol.
In the case of TTTGACACGTGCGGTG it was 0.06 kcal/mol; in that of GCGGACACGTGGTAGT, -0.01 kcal/mol; in that of CGGGTCACGTGTGTGC, 0.08 kcal/mol.
Regarding GAGGTCACGTGTAATG, the “relative binding free energy” value stood at 0.45 kcal/mol.
Regarding TAGGCCACGTGTGTGG, the “relative binding free energy” value is 0.09 kcal/mol.
In the case of GCTGGCACGTGTGGAT it was 0.01 kcal/mol; in that of TGGTGCACGTGTCGCG, -0.01 kcal/mol.
